This note sets out measurements from PubChem BioAssay AID1240 (Sanford-Burnham Center for Chemical Genomics, 2008).

Hit rate of the full screen: of about 50,000 compounds, about 800 (1.6%) showed an effect of 50% or more. The list shows a part of the results.

The target in the assay is Bcl-2-like protein 10 (Homo sapiens) (UniProt Q9HD36). Briefly: TR3 peptide-Bcl-B binding displacers, biochemical primary FP assay, phenotype converters (AID 1240).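 Also: 0% = Bcl-B with tracer peptide and DMSO and 100% = tracer peptide lacking Bcl-B.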 Conditions: GST-Bcl-B / FITC-TR3 peptide fluorescence polarization; stronger effect = higher value; compound at 3.75 mg/L. In general terms: Fluorescence polarisation rises when a labelled molecule tumbles more slowly, as on binding a larger partner.
UniProt Q9HD36, sequence (Q9HD36 whole entry, looked up): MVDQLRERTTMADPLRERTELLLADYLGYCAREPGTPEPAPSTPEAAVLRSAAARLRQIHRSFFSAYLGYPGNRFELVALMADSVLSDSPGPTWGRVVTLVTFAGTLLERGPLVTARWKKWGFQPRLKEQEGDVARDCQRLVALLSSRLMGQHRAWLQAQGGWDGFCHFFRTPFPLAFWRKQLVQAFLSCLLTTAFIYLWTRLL
`CCCCC(CC)CNC(=O)COc1cc(C)c(Cl)c(C)c1` (stereo not given): the displacement stood at 4.2%.
In the case of `O=C(Nc1ccc(F)cc1F)c1cnn2c1NC(c1cccs1)CC2C(F)(F)F` (stereo not given) it was 2.3%.
On to `COc1ccc(/C=C2\SC(=O)N(CCc3nnc(N)s3)C2=O)cc1`, for which the displacement worked out at 10.5%.
With `CCOc1ccc(N2C(=O)NC(=O)/C(=C\c3ccc(-c4ccccc4C(=O)O)o3)C2=O)cc1` the figure was 14.1%.
With `COc1ccc(-c2nc(-c3ccc(Cl)cc3)no2)cc1` the figure was 3.1%; with `CCCOc1ccc(C(=O)Nc2ncc(Cc3cccc(C(F)(F)F)c3)s2)cc1`, 0.4%; with `O=C(CSc1nc2ccc([N+](=O)[O-])cc2s1)N1CCOCC1`, 1.4%.
With `NC(=O)c1c(NC(=O)c2ccccc2Cl)sc2c1CCC2` the figure was -3.6%; with `COC(=O)c1ccc(NC(=O)CC2Nc3ccccc3NC2=O)cc1` (stereo not given), 108%.
Consider `Cc1ccc(/C(N)=N/OC(=O)COc2ccccc2C)cc1`, for which the displacement is -4.5%.
In the case of `CCN(CC)S(=O)(=O)c1cc(C(=O)NC2CCCCC2)ccc1C`, the displacement was -8%.
In the case of `COc1ccc(/C=C/C(=O)Nc2ncc(Cc3ccccc3Cl)s2)cc1` it was -17.4%; in that of `COc1ccc(S(=O)(=O)N2CCN(Cc3ccco3)CC2)cc1`, 11.1%.
In the case of `CCOc1ccccc1NC(=O)c1c(NC(=O)c2cccc(F)c2)sc2c1CCCCC2` it was 0.3%; in that of `O=C(NCc1cccc2ccccc12)c1ccccc1C(F)(F)F`, -3.8%.
With `COc1ccccc1N1CCN(/N=C\c2ccccc2C(F)(F)F)CC1` the figure was -15.2%; with `Cc1ccsc1/C=C1\SC(=S)N(CC2CCCO2)C1=O` (stereo not given), 1%; with `CCOc1cc(OCC)cc(C(=O)Nc2ccccc2C(=O)OC)c1`, -7.8%.
Turning to `CCc1ccc(N2C(=O)/C(=C/c3ccc(OCC(=O)O)c(OC)c3)C(=O)NC2=S)cc1`, the displacement is -9.5%.
With `CCc1c(C)sc(NC(=O)CCc2ccc(OC)cc2)c1C(=O)OC` the figure was -0.4%; with `Cc1c(NS(=O)(=O)c2cccc3c2C(=O)c2ccccc2C3=O)c(=O)n(-c2ccccc2)n1C`, 5.4%.
Regarding `Cc1cccc(NC(=S)NC(=O)COc2ccccc2)c1`, the displacement turned out to be 12.1%.
With `COc1cc(NS(=O)(=O)c2ccc(NC(=O)/C(=C\c3ccccc3OC)NC(=O)c3ccccc3)cc2)nc(OC)n1` the figure was 4.5%; with `CCc1ccc(-c2ncnn2-c2ccc(Cl)cc2)cc1`, 12.4%; with `COc1cc(NC(=O)c2cccs2)c(OC)cc1Cl`, -7.4%.
In the case of `CC1(C)CC(NC(=O)COc2ccc(Br)cc2)CC(C)(C)N1`, the displacement worked out at 0.7%.
In the case of `CC(=O)Nc1ccc(C2(O)COc3ccccc3O2)cc1` (stereo not given) it was 8.9%.
In the case of `Cc1occc1C(=O)Nc1ccc(C(=O)O)cc1` it was -1.9%; in that of `CCN(CC)CCCNS(=O)(=O)c1ccc([N+](=O)[O-])cc1`, -5.3%; in that of `CC(=O)Oc1ccc2occ(C(=O)c3ccccc3)c2c1`, -2.8%.
Regarding `O=C(Nc1ccc(Nc2ccccc2)cc1)c1ccccc1[N+](=O)[O-]`, the displacement worked out at 10.4%.
With `O=C(Cc1cccs1)Nc1cccc(C(F)(F)F)c1` the figure was 10.7%.
In the case of `CCCCCC(=O)NNC(=O)c1ccco1` it was -2%; in that of `COC(=O)c1ccc(C=NN2CCN(Cc3ccccc3)CC2)cc1`, 21.9%.
`COc1ccccc1C(=O)Nc1ncc(S(=O)(=O)c2ccc([N+](=O)[O-])cc2)s1`: the displacement was -7%.
With `Clc1ccc(N2CCN(N=Cc3cccc4ccccc34)CC2)cc1` the figure was -7.4%.
In the case of `CCOc1cc(/C=C2/C(=O)NC(=O)N(c3ccccc3)C2=O)ccc1OCc1ccc([N+](=O)[O-])cc1` it was 75.9%; in that of `Cc1ccc(NC(=O)COc2ccc3ccccc3c2)c([N+](=O)[O-])c1`, 8.1%; in that of `Cc1ccc(N(CCCCN2C(=O)c3ccccc3C2=O)C(=O)Nc2ccc([N+](=O)[O-])cc2)cc1`, -1.6%.
Regarding `C[n+]1ccc(-c2ncc(-c3ccc(F)cc3)o2)cc1`, the displacement is 2.6%.
With `O=C(NC(=S)Nc1ccc(C(=O)N2CCOCC2)cc1)c1cccs1` the figure was -0.5%; with `Cc1ccnc(NC(=O)/C=C/c2ccc3c(c2)OCO3)c1`, -1.5%.
In the case of `COC(=O)c1cc(C(=O)Nc2ccc(Cl)cc2Cl)cc([N+](=O)[O-])c1` it was 0.1%; in that of `C=CCNC(=O)c1ccc(N2C(=O)c3ccccc3C2=O)cc1`, 18.6%.
In the case of `COc1cccc(N2C(=O)/C(=C/c3ccc(O)c(OC)c3)SC2=S)c1` it was -10.6%; in that of `COC(=O)c1cccc(NC(=O)c2c(-c3ccccc3Cl)noc2C)c1`, -0.4%; in that of `CC(C)(C)CC(C)(C)NC(=O)CSCC(=O)Nc1ccc2ccccc2c1`, 7.5%.
As to `Fc1ccccc1-n1nnnc1SCc1cc2c(cc1Cl)OCO2`, the displacement is -2.6%.
In the case of `CCOc1ccccc1NC(=O)c1cc([N+](=O)[O-])ccc1N1CCN(C)CC1` it was 14%; in that of `CCCCOC(=O)C1=C(C)N(C)C(=O)NC1c1ccc(O)c(OC)c1` (stereo not given), 3.2%.
With `O=S(=O)(c1ccccc1)N1CCCc2ccccc21` the figure was -11.6%; with `COc1ccc2c(c1)/C(=N/OC(=O)c1ccc(OC)c(OC)c1)CCC2`, -7.2%; with `CCCOc1cccc(C(=O)Nc2nc(-c3ccc(F)cc3F)cs2)c1`, 0.3%.
In the case of `Cc1cc(C)[n+]2cc(Br)ccc2n1` it was 20.9%; in that of `O=C(Nc1ccccc1C(F)(F)F)c1cnn2c(C(F)(F)F)cc(-c3ccccc3)nc12`, 7%.
On to `Cc1cc(C)cc(N2C(=O)NC(=O)/C(=C\c3ccc4c(c3)OCO4)C2=O)c1`, for which the displacement was -22.8%.
With `CCOc1cc(C(=O)Nc2cccc(C(C)=O)c2)cc(OCC)c1OCC` the figure was 7.4%; with `COc1ccc(/C=C/C(=O)c2ccc3c(c2)OCCO3)cc1OC`, 17.5%; with `Cc1ccc(C(=O)Nc2ccc(O)c(C(=O)O)c2)o1`, 0.2%.
In the case of `CCOc1cccc(-c2cc(C(=O)Nc3ccccn3)c3ccccc3n2)c1` it was 41%.
With `C=CCn1c(CSc2nc3sc4c(c3c(=O)[nH]2)CCCC4)n[nH]c1=S` the figure was -7.3%; with `COc1ccccc1NC(=O)c1c(O)c2ccccc2[nH]c1=O`, -1.5%; with `CCCCNC(=O)c1cc2n(n1)C(C(F)(F)F)CC(c1ccc(Cl)c(Cl)c1)N2` (stereo not given), 0.5%.
For `Cc1cc(Cl)cc(Cl)c1OCCNC(C)(C)C`, the displacement is 6.3%.
As to `CCCc1cc(=O)oc2cc(OCC(=O)c3ccc(F)cc3)ccc12`, the displacement was 8.2%.
With `Cc1ccc(OCCCCN2CCC(C)CC2)c(C)c1` the figure was -12.3%; with `O=C(Nc1ccc(F)cc1F)c1cccc(I)c1`, -14.8%.
As for `CC(=O)Oc1cccc(C(=O)Nc2cccc(C(=O)c3cccc(C)c3C)c2)c1`, the displacement was 7.6%.
In the case of `COC(=O)C1CC(=O)N(c2ccc(Cl)cc2)C1` (stereo not given) it was 12.4%; in that of `CN(C)c1ccc(NS(=O)(=O)c2ccccc2[N+](=O)[O-])cc1`, 9.8%; in that of `COc1ccc(C(=O)N2CCN(c3cccc(C)c3C)CC2)c(OC)c1`, -4.4%.
In the case of `COc1ccccc1C(=O)Nc1ccc(C)cc1[N+](=O)[O-]` it was -0.2%.
In the case of `Cc1ccc(S(=O)(=O)Oc2ccc(/C=C3\SC(N)=NC3=O)cc2)cc1` it was -11.9%; in that of `CC(=O)N(c1ccc(C)cc1)c1nc(-c2ccccc2)c(-c2ccccc2)s1`, 5.7%; in that of `COc1ccc(Cl)cc1NC(=O)C(=O)NCc1ccncc1`, -8.1%.
For the compound `COc1cc(-c2nnc(NC(=O)c3ccc(C(C)(C)C)cc3)s2)cc(OC)c1OC`, the displacement is -1.4%.
With `CCOC(=O)c1nnc2cc(-c3ccccc3)nn2c1C` the figure was -2.5%; with `Cc1ccnc(NS(=O)(=O)c2ccc(NC(=O)C3CCCO3)cc2)n1` (stereo not given), -6.1%.
With `Cc1cc(C)c(C=C2C(=O)c3ccccc3C2=O)c(C)c1C` the figure was -8.6%; with `CCOc1ccc(-c2cn3c4ccccc4n(CCN(CC)CC)c3n2)cc1`, -8.7%; with `Cc1ccc(-c2cc(-c3ccccc3)nc(N/N=C/c3ccccc3O)n2)cc1`, -4.1%.
In the case of `CCOc1cc(CNCc2cc(OC)cc(OC)c2)ccc1OC` it was 5.1%; in that of `N#CC1=C(N)Oc2cc(N)ccc2C1c1ccc(OCc2ccccc2)cc1` (stereo not given), -21.1%.
For `O=C(CCc1ccccc1)Nc1cc([N+](=O)[O-])ccc1F`, the displacement is -6%.
With `COC(=O)c1ccc(/C=C2\SC(=S)N(c3cccc(C)c3C)C2=O)cc1` the figure was 14%; with `Nc1cc(N)c(N2CCCCC2)cc1N1CCCCC1`, 1.6%; with `O=C(Nc1ccccc1C(=O)Nc1nccs1)c1ccccc1`, -6%.
With `COc1cccc2c3c(c(C)nc12)CC(C)S3` (stereo not given) the figure was -6.4%; with `Cc1ccc(C(=O)Nc2nc(-c3ccccc3)cs2)cc1[N+](=O)[O-]`, 6.2%.
Take `C/C=C/COC(=O)C1=C(C)NC(=O)NC1c1ccc(Br)cc1` (stereo not given): the displacement was -2.1%.
With `CCN(CC)Cc1c(O)ccc2c(-c3ccccc3)cc(=O)oc12` the figure was -8.3%; with `N#CC(=C1CCCCC1)c1nc(-c2cc3ccccc3oc2=O)cs1`, 19%; with `Cc1ccc(NC(=O)C(=O)NCCN2CCN(C(=O)c3ccccc3[N+](=O)[O-])CC2)cc1`, -0.2%.
As for `CC(C)N/C=C/C(=O)c1ccc(Br)cc1`, the displacement is -7.1%.
In the case of `Cc1c(NC(=O)c2ccc(-c3ccc(Cl)cc3Cl)o2)cccc1-c1nc2ncccc2o1` it was 9%; in that of `C/C(CC(=O)Nc1ccccc1Cl)=N\NC(=O)c1ccco1`, -16.6%.
In the case of `CCSc1nnc(NC(=O)c2ccc([N+](=O)[O-])cc2[N+](=O)[O-])s1` it was 0.9%.
With `CCOC(=O)N1CCN(C(=O)NC23CC4CC(CC(C4)C2)C3)CC1` the figure was -3.4%; with `[O-][n+]1c2c(nc3c1-c1ccccc1C3O)CCCC2` (stereo not given), -5.3%.
Regarding `Fc1cccc(CN2CCN(Cc3ccncc3)CC2)c1`, the displacement was -3.1%.
With `O=C1NC(=Nc2cccc(Cl)c2Cl)S/C1=C\c1ccccc1` the figure was -3.6%; with `O=C1c2cccc3c(Br)ccc(c23)C(=O)N1Oc1ccc([N+](=O)[O-])cc1[N+](=O)[O-]`, 11.8%.
As for `C(=N/N1CCN(C(c2ccccc2)c2ccccc2)CC1)/c1ccccc1`, the displacement is -8.1%.
Turning to `COc1ccc(C(O)P(=O)(OC(C)C)OC(C)C)cc1OC` (stereo not given), the displacement was 12.2%.
In the case of `Cc1ccc(-c2nc3ccccc3[nH]2)cc1NC(=O)Cc1ccccc1` it was 8.8%; in that of `CCOC(=O)c1c(-c2ccccc2)csc1NC(=O)COc1ccc(Cl)cc1`, 5.2%.
With `O=C(Nc1ccc2c(c1)OCO2)c1nn2c(C(F)(F)F)cc(-c3ccco3)nc2c1Cl` the figure was -0.4%; with `O=C(NOC(=O)c1cccc(I)c1)c1ccc(Cl)cc1`, 11.7%; with `Cc1ccc(C2(c3ccc(C)cc3)CC2C(=O)Nc2ccccc2)cc1` (stereo not given), -2.9%.
In the case of `COc1ccc(CN2CCN(C(=O)c3ccccc3F)CC2)cc1Br` it was -3.3%.
